Results: a compilation of properties of binary mixtures (doi:10.1080/00319104.2013.782546)
Some of these densities may be calculated back from excess volumes.

Experiment: xn = mol fraction of the nth substance listed
Settings: 283.15 K, 101 kPa

CCCCCC[n+]1ccn(C)c1.O=S(=O)([N-]S(=O)(=O)C(F)(F)F)C(F)(F)F + c1ccccc1
mass density (x2 = 0): 1385.9 kg/m3 | mass density (x2 = 0.0442): 1380 kg/m3 | mass density (x2 = 0.1025): 1372 kg/m3 | mass density (x2 = 0.1963): 1357.6 kg/m3 | mass density (x2 = 0.299): 1338.4 kg/m3 | mass density (x2 = 0.3675): 1323.4 kg/m3 | mass density (x2 = 0.3905): 1318 kg/m3 | mass density (x2 = 0.5962): 1253.6 kg/m3 | mass density (x2 = 0.6486): 1230.5 kg/m3 | mass density (x2 = 0.7536): 1170.7 kg/m3 | mass density (x2 = 0.8367): 1108.2 kg/m3 | mass density (x2 = 0.8706): 1074.7 kg/m3

CC[n+]1ccn(C)c1.O=S(=O)([N-]S(=O)(=O)C(F)(F)F)C(F)(F)F + CCc1ccccc1
mass density (x2 = 0.1041): 1501.1 kg/m3 | mass density (x2 = 0.1985): 1466.7 kg/m3 | mass density (x2 = 0.2934): 1428.5 kg/m3 | mass density (x2 = 0.3956): 1382.4 kg/m3 | mass density (x2 = 0.4594): 1349.6 kg/m3 | mass density (x2 = 0.4817): 1337.8 kg/m3

CCC[n+]1cccc(C)c1.O=S(=O)([N-]S(=O)(=O)C(F)(F)F)C(F)(F)F + CCc1ccccc1
mass density (x2 = 0): 1461.7 kg/m3 | mass density (x2 = 0.1059): 1434 kg/m3 | mass density (x2 = 0.2001): 1407.3 kg/m3 | mass density (x2 = 0.4064): 1334 kg/m3 | mass density (x2 = 0.5734): 1254.5 kg/m3 | mass density (x2 = 0.6056): 1236.7 kg/m3 | mass density (x2 = 0.6379): 1217.6 kg/m3

Cc1ccc(C)cc1 + CC[n+]1cccc(C)c1.O=S(=O)([N-]S(=O)(=O)C(F)(F)F)C(F)(F)F
mass density (x1 = 1): 869.6 kg/m3

CC[n+]1ccn(C)c1.O=S(=O)([N-]S(=O)(=O)C(F)(F)F)C(F)(F)F + Cc1ccccc1
mass density (x2 = 0): 1534 kg/m3 | mass density (x2 = 0.047): 1521.8 kg/m3 | mass density (x2 = 0.2953): 1443.8 kg/m3 | mass density (x2 = 0.3983): 1402.6 kg/m3 | mass density (x2 = 0.5018): 1353 kg/m3 | mass density (x2 = 0.5968): 1298.1 kg/m3 | mass density (x2 = 0.6192): 1283.4 kg/m3

CCc1ccccc1 + CCC[n+]1cccc(C)c1.O=S(=O)([N-]S(=O)(=O)C(F)(F)F)C(F)(F)F
mass density (x1 = 1): 875.7 kg/m3

CC[n+]1cccc(C)c1.O=S(=O)([N-]S(=O)(=O)C(F)(F)F)C(F)(F)F + Cc1cccc(C)c1
mass density (x2 = 0): 1503.1 kg/m3 | mass density (x2 = 0.0511): 1489.1 kg/m3 | mass density (x2 = 0.0972): 1476.1 kg/m3 | mass density (x2 = 0.2): 1444 kg/m3 | mass density (x2 = 0.3014): 1408.2 kg/m3 | mass density (x2 = 0.4038): 1365 kg/m3 | mass density (x2 = 0.4441): 1346.7 kg/m3 | mass density (x2 = 0.4999): 1319.9 kg/m3 | mass density (x2 = 0.5239): 1307.4 kg/m3 | mass density (x2 = 0.5446): 1295.4 kg/m3 | mass density (x2 = 0.5784): 1276.7 kg/m3

Cc1ccc(C)cc1 + CCOS(=O)(=O)[O-].CC[n+]1cccc(C)c1
mass density (x1 = 1): 869.6 kg/m3

Cc1ccccc1 + CCC[n+]1cccc(C)c1.O=S(=O)([N-]S(=O)(=O)C(F)(F)F)C(F)(F)F
mass density (x1 = 1): 876.1 kg/m3
